# The whole screen tested about 310,000 compounds, of which about 14,000 (4.5%) showed an effect of 50% or more. The effect is printed as a negative number. This is one part of the list.
# Target: human ether-à-go-go-related gene (hERG) potassium channel (human, UniProt Q12809)
# Experiment: primary screen, population patch clamp on CHO cells stably expressing hERG
# 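Further: peak tail current of the secondary pulse compared with the same well before compound.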
# human ether-à-go-go-related gene (hERG) potassium channel, sequence (Q12809 whole entry, looked up): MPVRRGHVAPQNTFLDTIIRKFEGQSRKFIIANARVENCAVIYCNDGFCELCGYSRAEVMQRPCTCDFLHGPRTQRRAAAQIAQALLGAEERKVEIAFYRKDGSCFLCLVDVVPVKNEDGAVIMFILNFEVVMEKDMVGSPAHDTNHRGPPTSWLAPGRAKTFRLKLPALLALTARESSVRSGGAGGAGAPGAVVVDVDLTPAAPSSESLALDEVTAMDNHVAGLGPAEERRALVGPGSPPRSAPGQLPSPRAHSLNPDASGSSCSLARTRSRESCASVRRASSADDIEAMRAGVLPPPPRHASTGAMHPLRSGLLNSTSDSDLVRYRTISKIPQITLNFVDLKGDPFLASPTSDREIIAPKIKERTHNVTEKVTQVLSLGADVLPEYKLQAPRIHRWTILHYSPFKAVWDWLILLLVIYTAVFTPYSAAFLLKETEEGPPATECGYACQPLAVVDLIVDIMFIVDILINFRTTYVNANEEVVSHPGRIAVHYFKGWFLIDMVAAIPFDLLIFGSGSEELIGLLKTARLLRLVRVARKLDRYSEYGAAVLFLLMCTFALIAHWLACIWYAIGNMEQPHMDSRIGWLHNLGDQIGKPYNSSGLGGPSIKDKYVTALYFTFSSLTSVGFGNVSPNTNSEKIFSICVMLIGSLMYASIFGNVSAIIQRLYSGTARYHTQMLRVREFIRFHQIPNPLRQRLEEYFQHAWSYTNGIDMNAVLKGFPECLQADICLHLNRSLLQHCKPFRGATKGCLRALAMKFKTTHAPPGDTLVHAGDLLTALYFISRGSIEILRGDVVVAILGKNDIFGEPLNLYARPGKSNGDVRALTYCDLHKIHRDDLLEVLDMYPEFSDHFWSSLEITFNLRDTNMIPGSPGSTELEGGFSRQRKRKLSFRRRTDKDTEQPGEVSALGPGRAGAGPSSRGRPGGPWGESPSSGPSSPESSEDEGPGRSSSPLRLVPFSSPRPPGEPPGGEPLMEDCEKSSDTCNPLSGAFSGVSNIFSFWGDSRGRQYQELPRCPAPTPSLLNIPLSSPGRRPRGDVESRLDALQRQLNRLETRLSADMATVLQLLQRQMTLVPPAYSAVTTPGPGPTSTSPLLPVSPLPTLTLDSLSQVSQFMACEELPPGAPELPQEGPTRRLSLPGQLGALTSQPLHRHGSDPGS
row,Compound,"hERG current change (%, negative = inhibition) at 10uM [%]"
1,C=CCc1cc(OC)c2c(c1)OCO2,8.39
2,O=C(NCCS(=O)(=O)c1ccc(Br)cc1)c1c(F)cccc1F,22.1
3,COc1cc(CCCN2C(=S)NC[C@@H]2Cc2ccccc2)cc(OC)c1OC,-8.91
4,COc1ccc(NC(=S)NC2CC3CCC2C3)c(OC)c1 (centres unmarked),17.3
5,CC(OC(=O)C1COc2ccccc2O1)C(=O)N(C)c1ccccc1 (centres unmarked),1.71
6,Cc1cccc(NC(=S)N2CCCCCC2)c1,-3.94
7,COc1ccc(CCNC(=O)c2ccc(N3CCCC3=O)cc2)cc1,-7.01
8,COc1cc(NC(=O)CNC(c2ccccc2)c2ccccc2)cc(OC)c1OC,2.15
9,CC(=O)CCS(=O)(=O)c1ccc(Oc2ccc(S(=O)(=O)CCC(C)=O)cc2)cc1,-2.04
10,COc1ccc(N2CCN(C(=O)CSc3ncccc3-c3nc4ccccc4[nH]3)CC2)cc1,-53.4
11,O=P(Oc1ccccc1)(Oc1ccccc1)c1ccccc1,-21.8
12,COC(=O)c1ccc2nc(NC(=O)CSCC(=O)OCC(=O)c3ccccc3)sc2c1,-4.95
13,CC1=C(C#N)C(Nc2cccc(C)n2)(C(F)(F)F)C(=O)N1 (centres unmarked),12.2
14,COc1ccc(-c2cc(C(=O)Nc3ccccc3N3CCOCC3)c3ccccc3n2)cc1OC,7.48
15,CCn1c(SCC(=O)Nc2ccc(Br)cn2)nnc1C1CC1,-4.12
16,CCc1cc(C(c2ccc(OC)c(OC)c2)N2CCOCC2)c(NC(=O)c2ccccc2)s1 (centres unmarked),-15.7
17,COc1ccc(C(=S)N2CCN(c3ccccc3Cl)CC2)cc1OC,-17.4
18,CCOc1ccccc1NC(=O)CN1CCCCCC1.Cl,14.7
19,COc1ccc(N(C(=O)c2ccccc2C)S(=O)(=O)c2cccs2)cc1,-3.67
20,O=C(CSc1nc(O)cc(=O)[nH]1)Nc1ccc2c(c1)CCC2,21.4
21,C=CCN=C1N[C@@H](c2ccccc2)C(C(=O)OC)=C(C)N1CCOC,-13
22,CCOc1cc(C(=O)N2CCCC2)cc(OCC)c1OCC,21.8

row,Compound,"hERG current change (%, negative = inhibition) at 10uM [%]"
1,O=C(O)c1ccc2cccnc2c1O,16.8
2,CCCn1c(C)nc2c(c1=O)c1nc3ccccc3nc1n2CCC1=CCCCC1,-4.27
3,COc1ccc(Cl)cc1-n1c(C)cc(C(=O)OCC(=O)N2CC(=O)Nc3ccccc32)c1C,3.8
4,COC(=O)c1cc2ccccc2c(-c2c(O)ccc3ccccc23)c1O,-3.85
5,CC(=O)NC(Cc1c[nH]c2ccccc12)C(=O)NCCc1ccccn1 (centres unmarked),22
6,O=C(NN1CCOCC1)c1ccc(Cl)c(Cl)c1,-47.3
7,CC(C(=O)OCC(=O)c1cccc([N+](=O)[O-])c1)N1C(=O)C2C3C=CC(C3)C2C1=O (centres unmarked),-7.18
8,CCOc1ccc(-c2nn(-c3ccccc3)cc2/C=C2\SC(=S)N(Cc3ccco3)C2=O)cc1,5.21
9,Cn1c(OCc2ccc3c(c2)OCO3)nc2c1c(=O)n(Cc1cccc(Cl)c1)c(=O)n2C,-0.643
10,CC(=O)c1ccc(OCC(=O)N2CCCC(N3CCN(c4ccccc4C)CC3)C2)cc1 (centres unmarked),-75.2
11,Cn1c(C(=O)NC2CC2)cc(=O)n(C)c1=O,-8
12,COC(=O)c1ccccc1S(=O)(=O)N1CCC(C(=O)OC(C)C(=O)NC(N)=O)CC1 (centres unmarked),29.7
13,CCOC(=O)c1c(C)[nH]c(C)c1S(=O)(=O)NCCN1CCN(c2cc(Cl)ccc2C)CC1,15.5
14,Cc1ccc(CONC(=O)c2cccc(C)c2)cc1,-23.3
15,O=C1CC(N2CCN(S(=O)(=O)c3ccc(Cl)cc3)CC2)C(=O)N1CCc1ccccc1 (centres unmarked),-48.2
16,COc1cc(OC)cc(-c2nnc(SCC(=O)N3CCCC3)o2)c1,-14.7
17,CN(C)CCCNC(=O)c1cc(C(=O)c2ccccc2)c[nH]1,10.5
18,Cc1ccc(S(=O)(=O)N/N=C/c2ccc(OC3CSC3)cc2)cc1,-5.47
19,CCC(=O)N1CCN(c2ccc(NC(=S)NC(=O)c3cc4ccccc4o3)cc2)CC1,6.52
20,CC1(C)CC(NS(=O)(=O)c2cccc3ccccc23)CC(C)(C)N1,2.15
21,O=C(Nc1ccccc1)NC1(C(=O)N2CCN(C(=O)c3ccco3)CC2)CCCCC1,0.526
22,Cc1cc(SCC(=O)OC(C)C(=O)N(C)c2ccccc2)nc2ccccc12 (centres unmarked),4.79
